Drawing on the supplement of paper PMC9446081, this text covers relative growth for 60 molecules.

Molecules are shown by their SMILES. The campaign covered roughly 39,000 compounds. About 220 (0.56%) showed activity. The list shows a part of the results.
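Also: static incubation at 37 °C against the wild-type strain, values averaged over two biological replicates.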

The subject of the test is Escherichia coli K-12 BW25113. Kind of test: relative growth (OD600 normalised to plate interquartile mean) (fraction); higher = less growth inhibition, active = 0.2 or less. To be noted: 50 µM; LB; incubation time: overnight (16-24 h).
`CCCCCCCCCCCCCCCC(=O)O[C@@H]1[C@@H](O)[C@@H](O)[C@@H]([C@H](NC(=O)[C@@H]2C[C@@H](CCC)CN2C)[C@H](C)Cl)O[C@@H]1SC`: the relative growth was inactive: 1.01. The same measure for `C[C@@]1(c2ccc3c(c2)OCCO3)NC(=O)NC1=O`: inactive: 1.

`CC(C)(C)[S@](=O)N1Cc2cc(C(=O)NCc3ccccc3F)nc(-c3cccc(-c4cccnc4)c3)c2[C@@H]1CCO`: the relative growth was inactive: 0.977. The same measure for `C[C@@H]1CN([C@@H](C)CO)C(=O)Cc2cc(NC(=O)Nc3ccc4c(c3)OCO4)ccc2O[C@@H]1CN(C)S(=O)(=O)c1cn(C)cn1`: inactive: 1. For `O=C(NCCCN1CCOCC1)[C@H]1[C@H](CO)[C@H]2Cn3c(cccc3=O)[C@@H]1N2C(=O)C1CCCC1` the value was inactive: 1; for `Cc1noc(C)c1S(=O)(=O)Nc1ccc2c(c1)CC(=O)N([C@@H](C)CO)C[C@@H](C)[C@H](CN(C)C(=O)Nc1ccc3c(c1)OCO3)O2`, inactive: 1.02; for `C[C@H](CO)N1C[C@H](C)[C@H](CN(C)Cc2ccccn2)Oc2cc(C#CCN(C)C)ccc2S1(=O)=O`, inactive: 1. For `Cc1ccc(NC(=O)[C@H]2CCCN(C(=O)c3c(C)cccc3F)[C@H]2c2ccc(NC3CCCC3)cc2)cc1C(F)(F)F` the value was inactive: 1.03; for `CC(O)C1C(=O)N2C(C(=O)[O-])=C(SC3Cn4cnc[n+]4C3)C(C)C12` (stereo not given), inactive: 0.307; for `CN1C(=O)c2cc(NC(=O)C3CCOCC3)ccc2OC[C@H]2O[C@H](CC(=O)NCc3ccccc3F)CC[C@@H]21`, inactive: 1.05. In the case of `COc1ccc(S(=O)(=O)N(C)C[C@H]2OCCCC[C@H](C)Oc3ccc(NS(C)(=O)=O)cc3C(=O)N([C@H](C)CO)C[C@H]2C)cc1`, the relative growth is inactive: 1.02. For `COc1ccc2c3c(n(c2c1)C)[C@@H](CO)N(C[C@]13CN(CC2CCOCC2)C1)C(=O)c1ccc(cc1)F` the value was inactive: 1; for `COc1ccc(S(=O)(=O)Nc2ccc3c(c2)C(=O)N([C@@H](C)CO)C[C@H](C)[C@H](CN(C)Cc2ccccc2)OCCCC[C@@H](C)O3)cc1`, inactive: 1.02. Consider `C=CCNC(=O)[C@H]1[C@@H]2C(=O)O[C@@H](c3ccccc3)[C@@H](c3ccccc3)N2[C@@H](c2ccccc2OCCO)[C@]12C(=O)N(C(=O)OCCOC)c1ccc(C#Cc3ccc(OC)cc3)cc12`, for which the relative growth is inactive: 1.08.

For `COc1ccc(CN(C)C[C@H]2Oc3ccc(NS(C)(=O)=O)cc3C(=O)N([C@@H](C)CO)C[C@H]2C)cc1`, the relative growth is inactive: 0.984. Turning to `C=CCOC(=O)[C@@H]1[C@H]2C(=O)O[C@H](c3ccccc3)[C@H](c3ccccc3)N2[C@H](c2ccc(OCCOC(=O)[C@H]3C[C@H]4C(=O)N5CCC[C@H]5C(=O)N4[C@H]3c3ccc(O)cc3)cc2)[C@@]12C(=O)Nc1ccc(I)cc12`, the relative growth is inactive: 1.04. For `C[C@H](O)C#Cc1cnc2c(c1)C(=O)N([C@H](C)CO)C[C@@H](C)[C@H](CN(C)C(=O)Nc1ccc(C(F)(F)F)cc1)O2` the value was inactive: 0.993; for `C=c1ccc(C)cc1=C1NN=C(NC(=O)c2ccc(S(=O)(=O)N(CCOC)CCOC)cc2)O1`, inactive: 0.998; for `O=C(N1CCOCC1)C(F)(F)F`, inactive: 0.999. With `C[C@@H]1CCCCO[C@@H](CN(C)Cc2ccc(C(F)(F)F)cc2)[C@H](C)CN([C@H](C)CO)C(=O)c2cc(N(C)C)ccc2O1`, the relative growth was inactive: 1. For `COc1c(C)cc(-c2cc3c(c(CCc4ccccc4)n2)[Si](C(C)C)(C(C)C)O[C@H]3c2ccccc2)cc1C` the value was inactive: 0.983; for `N[C@H](Cc1cc(I)c(Oc2ccc(O)c(I)c2)c(I)c1)C(=O)O`, inactive: 0.993. In the case of `C[C@H]1CN([C@@H](C)CO)C(=O)c2cc(NC(=O)Cn3cnnn3)ccc2O[C@@H]1CN(C)Cc1ccncc1`, the relative growth is inactive: 1.02. In the case of `Cc1noc(C)c1NC(=O)N(C)C[C@@H]1OCCCC[C@H](C)Oc2ccc(NS(=O)(=O)c3ccc(F)cc3)cc2C(=O)N([C@@H](C)CO)C[C@@H]1C`, the relative growth is inactive: 0.992.

With `O=C(CCCCC(=O)N/N=C/[C@H](O)[C@@H](O)[C@H](O)CO)NO`, the relative growth is inactive: 1.01. Turning to `CCCCNC(=O)N1CCN(C)CC1`, the relative growth was inactive: 1.01. For `CCS(=O)(=O)Nc1ccc2c(c1)C(=O)N(C)[C@@H]1CC[C@@H](CC(=O)N3CCN(C)CC3)O[C@H]1CO2` the value was inactive: 1.01; for `C[C@@H]1CN([C@H](C)CO)C(=O)c2cc(NC(=O)Cn3cnnn3)ccc2O[C@H]1CN(C)Cc1ccc(Oc2ccccc2)cc1`, inactive: 1.01; for `COc1ccc([C@H]([C@@H](O)Cc2ccccc2)N(CC#C[C@@H](O)c2ccccc2)[C@@H](Cc2ccccc2)C(OC)OC)cc1`, inactive: 1.02. The same measure for `CC(C)C#Cc1cnc2c(c1)C(=O)N([C@@H](C)CO)C[C@H](C)[C@@H](CN(C)C(=O)c1ccc3c(c1)OCO3)O2`: inactive: 1.04; for `C[C@H]1CN([C@@H](C)CO)C(=O)Cc2cc(NS(=O)(=O)c3cn(C)cn3)ccc2O[C@@H]1CN(C)Cc1ccncc1`: inactive: 1.01; for `Cc1noc(C)c1NC(=O)Nc1ccc2c(c1)C(=O)N([C@H](C)CO)C[C@H](C)[C@H](CN(C)C(=O)c1ccccc1)OCCCC[C@@H](C)O2`: inactive: 0.998.

For the molecule `O=C(Nc1cccc2cccnc12)[C@H]1[C@@H](c2ccc(C(F)(F)F)cc2)CC(=O)N1C(=O)OCc1ccccc1`, the relative growth is inactive: 0.958.

Turning to `C[C@H]1CCCCO[C@H](CN(C)Cc2ccc(Cl)c(Cl)c2)[C@@H](C)CN([C@@H](C)CO)C(=O)c2cc(NC(=O)Nc3ccc(F)cc3)ccc2O1`, the relative growth was inactive: 1.01. For `CN(C)CCCNC(=O)C[C@@H]1CC[C@@H]2[C@H](COc3ccc(NC(=O)c4ccc5c(c4)OCO5)cc3C(=O)N2C)O1` the value was inactive: 1.02; for `COc1ccc(S(=O)(=O)Nc2ccc3c(c2)C(=O)N([C@H](C)CO)C[C@H](C)[C@H](CN(C)CC2CCCCC2)OCCCC[C@H](C)O3)cc1`, inactive: 1.

Regarding `CCOC(=O)Cn1c(=O)c(C(N)=S)cn(C(C)C)c1=O`, the relative growth is inactive: 0.973.

With `C[C@H](CO)N1C[C@H](C)[C@@H](CN(C)C(=O)Nc2cccc3ccccc23)OCCCC[C@H](C)Oc2ccc(NC(=O)Nc3cccc4ccccc34)cc2C1=O`, the relative growth is inactive: 1.02.

In the case of `Cc1noc(C)c1S(=O)(=O)N(C)C[C@H]1Oc2c(NS(=O)(=O)c3cn(C)cn3)cccc2C(=O)N([C@H](C)CO)C[C@@H]1C`, the relative growth was inactive: 0.992.

For the molecule `N#Cc1ccc(-c2ccccc2)cn1`, the relative growth is inactive: 1. For `O=C(C[C@H]1CC[C@@H](NC(=O)C2CC2)[C@H](CO)O1)NCCCN1CCOCC1` the value was inactive: 0.988; for `C[C@@H]1CCCCO[C@H](CN(C)C)[C@H](C)CN([C@@H](C)CO)C(=O)c2cc(NC(=O)Nc3cccc4ccccc34)ccc2O1`, inactive: 1.02. On to `Cc1noc(C)c1S(=O)(=O)Nc1ccc2c(c1)CC(=O)N([C@@H](C)CO)C[C@@H](C)[C@H](CN(C)S(=O)(=O)c1ccccc1)O2`, for which the relative growth is inactive: 1.02. The same measure for `CS(=O)(=O)N1CCOC[C@]2(CN(C(=O)c3ccc[nH]3)CCO2)C1`: inactive: 1.02; for `CN1C(=O)c2cc(NC(=O)Nc3ccccc3F)ccc2OC[C@@H]2O[C@H](CC(=O)NCc3ccc(-c4ccccc4)cc3)CC[C@@H]21`: inactive: 1.08; for `CC(=O)N1CCN(CCOc2ccc(C3CCN(C4=Nn5c(nnc5C(F)(F)F)CC4)CC3)cc2)CC1`: inactive: 0.985. With `COc1ccccc1NC(=O)N(C)C[C@H]1Oc2ncc(C#CCN(C)C)cc2C(=O)N([C@@H](C)CO)C[C@H]1C`, the relative growth was inactive: 1. For `COc1ccc(NC(=O)Nc2ccc3c(c2)CC(=O)N([C@H](C)CO)C[C@H](C)[C@H](CN(C)Cc2ccc(C(F)(F)F)cc2)O3)cc1` the value was inactive: 0.999; for `C[C@H]1CN([C@@H](C)CO)C(=O)c2cc(NC(=O)CCCCCC(=O)Nc3ccccc3N)ccc2O[C@H]1CN(C)C(=O)Nc1ccccc1`, inactive: 0.944. As to `COc1ccc(S(=O)(=O)N2C[C@@H](O)COC[C@H]3O[C@H](CC(=O)N[C@H]4CCN(Cc5ccccc5)C4)CC[C@@H]32)cc1`, the relative growth is inactive: 0.98.

Take `COc1ccc(NC(=O)Nc2cccc3c2O[C@@H](CN(C)S(=O)(=O)c2cn(C)cn2)[C@@H](C)CN([C@H](C)CO)C3=O)cc1`: the relative growth is inactive: 0.982. For `CC(C)CC#Cc1ccc2c(c1)O[C@@H](CN(C)C(=O)Cc1cccnc1)[C@@H](C)CN([C@@H](C)CO)S2(=O)=O` the value was inactive: 1.04; for `C[C@H](CO)N1C[C@H](C)[C@@H](CN(C)Cc2ccccc2)OCCCC[C@H](C)Oc2ccc(NC(=O)Nc3cccc4ccccc34)cc2C1=O`, inactive: 1.03. For `Cc1ccc2nc(-c3ccc(NC(=O)C4CCC4)cc3)sc2c1` the value was inactive: 1.02; for `C[C@H]1CN([C@@H](C)CO)C(=O)c2c(c3ccccc3n2C)-c2ccccc2CO[C@H]1CN(C)Cc1ccc2c(c1)OCCN2C`, inactive: 0.977; for `C[C@@H]1CN([C@H](C)CO)C(=O)c2cc(NC(=O)Nc3ccc(C(F)(F)F)cc3)ccc2O[C@@H](C)CCCCO[C@@H]1CN(C)S(=O)(=O)c1cccs1`, inactive: 1.01. As for `CCCNC(=O)N1C[C@@H](O)COC[C@H]2O[C@H](CC(=O)NCc3ccncn3)CC[C@@H]21`, the relative growth was inactive: 0.992. The same measure for `O=C(NCc1nc2ccccc2[nH]1)C1=C[C@@H](c2ccc(C(F)(F)F)cc2)C[C@@H](OCc2ccc(CO)cc2)O1`: inactive: 1.03; for `CCCn1ncnc1[C@@H](C)N`: inactive: 1.03. For `Cc1ccc(S(=O)(=O)N(C)C[C@@H]2Oc3c(NS(=O)(=O)c4cn(C)cn4)cccc3C(=O)N([C@@H](C)CO)C[C@@H]2C)cc1` the value was inactive: 1.02.
